According to PMC12136788:
Some of the results follow.

T1: UNK ZnF1-3 (human, UniProt Q9C0B0 31-174)
T1 sequence: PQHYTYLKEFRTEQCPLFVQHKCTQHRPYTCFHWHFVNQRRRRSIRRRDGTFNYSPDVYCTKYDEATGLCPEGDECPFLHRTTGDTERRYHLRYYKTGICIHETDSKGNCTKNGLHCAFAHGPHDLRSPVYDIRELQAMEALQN

B1: chr19:60835742:60835743:+_ENSMUSG00000072437_ENSMUST00000088237|mus_mus|FALSE|FALSE (ssRNA)
RNA: GGGAGUUCUACAGUCCGACGAUCUUCUGAAAAGGACUUUAUAGGAAAAAUAAAGUACAAAAAAGUAAAAAGCCGAUAAAACUAGCAAGUUUGGAUAGACAAAUGCAGGCUAAAGCACAGCACAACCUGUGCCUUUCUGCCCAUCAACAGAGGAUUGAGCAUCA
B2: 198353956_198358052_1041_CDS_ENSG00000144381_ENST00000345042|human|control|control (ssRNA)
RNA: GGGAGUUCUACAGUCCGACGAUCCUCUUCUCCAAACACUGCACCACCAGUAGCAAUAGCCAUAUCUUUAAGCUGGUUCUUUCUAUUGUCACCAAACCCUGGAGCCUUGACUGCCACAACCUGAAGACCAACCUUUAGCCUAUUCAACAGAGGAUUGAGCAUCA
B3: chr5:37680062:37680063:+_ENSMUSG00000029121_ENSMUST00000031004|mus_hu|mus_mus_mus_hu_False|8_28 (ssRNA)
RNA: GGGAGUUCUACAGUCCGACGAUCUUUGGGUGUAGCUGGUACCUCGUACACAGGACCGUCAUACAUGCCCCUGGAAACCCCUUGCAAUCCAAAAACCUUAUUCCUGAUCCUGACACGCUGGUACAGGUGCUCUGGGAACGCCUUCAACAGAGGAUUGAGCAUCA
B4: chr6:71460543:71460544:+_ENSMUSG00000052656_ENSMUST00000064637|mus_hu|FALSE|FALSE (ssRNA)
RNA: GGGAGUUCUACAGUCCGACGAUCCAACCAAAUAAAUUCUGUCAUCAACAUUAGCAUAAUGUGUAUUUCCCGUCACUGCACUAACAUUAAACUAAACUUCAAACCACAAAAACAUUGUGACUAACAUUAAAAAGGCAAGCUGUACAACAGAGGAUUGAGCAUCA
B5: chr8:95500983:95500984:-_ENSG00000164944_ENST00000437199|hu_hu|hu_hu_hu_mus_True|8_28 (ssRNA)
RNA: GGGAGUUCUACAGUCCGACGAUCAGAACACAUCUAUCGAGUAAAGGACCGUACAUGACGGCCUCUACCACUGCCUCCACUAACAAACUUUCCUCUCGAGCCUCCACCUGCCGCUAUUGUACUAGCCCCAGGAAGGUCCAGGCCCAACAGAGGAUUGAGCAUCA
B6: chr17:65346418:65346419:-_ENSG00000197170_ENST00000584008|hu_mus|FALSE|FALSE (ssRNA)
RNA: GGGAGUUCUACAGUCCGACGAUCCCGCAGAGUAUCAAUCAAUCGCAGCUUGACUGGCAGGUCUGUGAUCUCCUCCACGUAAGUACAGCACUGCUGAACCAUUUUUGCAACUGCUUGUUUUAACUGACUCCGUCGUUUUGACAGCAACAGAGGAUUGAGCAUCA
B7: 55646247_55646367_442_5pUTR_ENSG00000115355_ENST00000336838|human|control|control (ssRNA)
RNA: GGGAGUUCUACAGUCCGACGAUCCCACAAAAAUACGCCUAGGGAAUUGGUCACUAAACGUGGAAGUAAGUAGAAAUCAAUGAAAGUCCAUUUCGGCAAGGGAGAAAAAUCCCAUCGUGGAGGAGGGGGGCACUCUCCCUCCUCCAACAGAGGAUUGAGCAUCA
B8: chr10:120825051:120825052:-_ENSG00000107581_ENST00000369144|hu_hu|FALSE|FALSE (ssRNA)
RNA: GGGAGUUCUACAGUCCGACGAUCAUCCAGAAGUCGAGCAAUAUCCGUACGCUCAGGAGUAAUAGGGAUGGAAAGAGUGGCUAAAAGGACUCUAGUAGACAUUCUUUGCAUCUCAUCUUGUGUGAGAUUCUUUCUCAUUUCUCUCAACAGAGGAUUGAGCAUCA
B9: chr1:156945260:156945261:-_ENSMUSG00000056708_ENSMUST00000055322|mus_mus|FALSE|FALSE (ssRNA)
RNA: GGGAGUUCUACAGUCCGACGAUCCCCCCAAGAUCGAACGGGGAACUCCCCUUCCUCGAGCCUUUCUGCAGCUUCCUUUUCUGUGCUGCUGGCAGAGGAAAGUCCCUGUCUGCACCCCCAAAGUCUCAAGCCCCGGGGAAGGGGCAACAGAGGAUUGAGCAUCA
B10: chr1:111660612:111660613:-_ENSG00000156171_ENST00000539140|hu_hu|motif|central (ssRNA)
RNA: GGGAGUUCUACAGUCCGACGAUCAAAGUAUAGGCAUAGGUGUUUUUAAUAGUCUUCUUGAUGAUAUCCUUUAGAAUAAUCGGUCAAAUGGCUUCUUUCAUGUUUCCUGAUUAUCAGCAUUCAUCAGUGUUACUGUCAGCCUUGCAACAGAGGAUUGAGCAUCA
B11: chr1:245006428:245006429:+_ENSG00000203667_ENST00000366528|hu_mus|FALSE|FALSE (ssRNA)
RNA: GGGAGUUCUACAGUCCGACGAUCAGUUGCUUAGCUGCUGUUGUUGGUCUUCAUUUUUCUUUCAGGAUCAAGGUGGGUGCUUUCAUAUAAAAUCUUAUUUUUUAUUCCUUCUCUGGCAAUUCUUUCCUGGAUCCUCUGCUUAGCCAACAGAGGAUUGAGCAUCA
B12: chr19:8913615:8913616:-_ENSMUSG00000071658_ENSMUST00000096259|mus_hu|mus_mus_mus_hu_False|68_68 (ssRNA)
RNA: GGGAGUUCUACAGUCCGACGAUCAGGGUACCAAAACCUUCUGCCUGAAAUGGGUGCCCCACCCAGUCAGGACUUGGAGCUGAAAGUAUCUGAUGCAGAAGCAGUGACUAUACGAAAGGAGGCCCCUGGGGAGGGCCAGGCCAGCAACAGAGGAUUGAGCAUCA
B13: chr3:108163977:108163978:+_ENSMUSG00000068747_ENSMUST00000102632|mus_hu|FALSE|FALSE (ssRNA)
RNA: GGGAGUUCUACAGUCCGACGAUCAUUUCUGUGCACGAGGAUAAGGAGAGUAUGACCAAAACCCUCCUCCCUAGAGGUCCAAACACAGGAGGUGGGCCAAAUCAUCAGGGAACAGUCAGUCACCCGCUUGUGGCUGAGGGCAUGCAACAGAGGAUUGAGCAUCA
B14: chr11:47650564:47650565:-_ENSG00000109919_ENST00000530428|hu_mus|motif|central (ssRNA)
RNA: GGGAGUUCUACAGUCCGACGAUCAUAGGUAUUGAUGAGAUAGGCCAGUGAGUUACACAGCCACAAAGAAAUGAUGUCACCGGGGAGGCGAGGAAUGAGACCCGCAAAAAAUCCUACGAUGCCUUCUUCCCGGUAGAUGGUUACCAACAGAGGAUUGAGCAUCA
B15: chr2:48026839:48026840:+_ENSG00000116062_ENST00000540021|hu_hu|hu_hu_hu_mus_False|48_98 (ssRNA)
RNA: GGGAGUUCUACAGUCCGACGAUCAUAGUGAGCCACUAGAGUCCUAAAUCUGGAACAGUGGCGGUCAUCCGAAAACUGGCCGAUGAAAAACUUUCCCAGUGAAGUGUCCACAAAGCAAACACCAUACACACGAGUGUGACCAGACAACAGAGGAUUGAGCAUCA
B16: chr7:141441981:141441982:+_ENSG00000106028_ENST00000265304|hu_mus|hu_hu_hu_mus_False|38_48 (ssRNA)
RNA: GGGAGUUCUACAGUCCGACGAUCCUCAUGUCUUACAAACUGACGAAAUACCUGUAACACAGGUCUUCGAAACAUGGCUUCUGUUUUCUUUUCUUACAGUCUAAUCUGCUUUUCCUAAAGGAAAGAAAGAAAAGAGAAAAAUGACAACAGAGGAUUGAGCAUCA
B17: chr10:59467614:59467615:+_ENSMUSG00000044475_ENSMUST00000050516|mus_mus|FALSE|FALSE (ssRNA)
RNA: GGGAGUUCUACAGUCCGACGAUCAUAGAAAUCCUCGUCUUCUUCAUGUUGGUACUGUUUCUCCUGGAUGGGAUUCUUUCUAUAAUUCCGUCCAUCGAACGUUACAAUCUGUGGGCGUAGAACAUCCAUGACAAAUGACGUUCCCAACAGAGGAUUGAGCAUCA
B18: chr9:124914678:124914679:-_ENSG00000119421_ENST00000373768|hu_mus|FALSE|FALSE (ssRNA)
RNA: GGGAGUUCUACAGUCCGACGAUCGGUUUUAUCGCACUGAGCCCCAUAGUGAUGGGCGGCAGCUUUAAGCACAGCUGAGCUGACUUUCACCUCCUCCACUUUCAGCUCUUCCAGAGUUGGCAGCUCCACUAUCCCCGGCAUGACCAACAGAGGAUUGAGCAUCA
B19: chr4:57889662:57889663:+_ENSG00000047315_ENST00000314595|hu_hu|motif|central (ssRNA)
RNA: GGGAGUUCUACAGUCCGACGAUCAUUGAGAGUUACCAUAACCUGAUCCACAAUGCCCGUCUCGCUAGUUCUGAGAAAAGUGCGGCAGUCUCUCUUGGUAUAGCGUCUAUUGGUGCUCUCCAAUUCAUCUUCAUUUUCAGGCAACAACAGAGGAUUGAGCAUCA
B20: chr14:90871201:90871202:+_ENSG00000198668_ENST00000553542|hu_hu|FALSE|FALSE (ssRNA)
RNA: GGGAGUUCUACAGUCCGACGAUCCCAAUACAUGCAGAUUUUGUGUGUGUGGACAGAAGGUACUUUUGACAUUCAGUUUUGCUAUAUAGAAACAGAAUGAAUAAAUGAACUUUUUUCUUUUUUCUUUUUUUUGCAAGAGGUAAGCAACAGAGGAUUGAGCAUCA
B21: 69359715_69359835_4468_3pUTR_ENSMUSG00000027784_ENSMUST00000029355|mouse|control|control (ssRNA)
RNA: GGGAGUUCUACAGUCCGACGAUCAAUCCCUGCCCCUGCCCUCUCACCCUAUCCCACCUGAGGAGGACAGAUCGCCAGGGGAGCAGCAGGGCUAGGGUUCAAGAGGGCCUGGGGCUGGCAUCAACUUAUUCCUCAAACACUGUACAACAGAGGAUUGAGCAUCA
B22: chr17:27185601:27185602:+_ENSG00000132591_ENST00000254928|hu_hu|FALSE|FALSE (ssRNA)
RNA: GGGAGUUCUACAGUCCGACGAUCGACCACACCUUCAGUGAGGGCUGCCGUGAGCUCCAGGAGAACUGACUUCUGCUUCAAACAAUCUACCUUGUUCAUGACCAGGACACUAGGGAUCUGGGAGUACUUGGUCAAGCACCUGAGCAACAGAGGAUUGAGCAUCA

Target: T1, UNK ZnF1-3
Assay: nsRBNS (natural sequence RNA bind-n-seq); RBNS binding buffer (assumed for nsRBNS): 25 mM Tris pH 7.5, 150 mM KCl, 3 mM MgCl2, 0.01% Triton X-100, 500 ug/ml BSA, 20 U/ml SUPERase-In, 4 C; UNK is unkempt and MSI1 is Musashi-1; names of the RNAs are library labels; protein concentration not given here; high values mean tight binding

Binder | binding signal
B1 | 0.799 enrichment R
B2 | 1.14 enrichment R
B3 | 0.821 enrichment R
B4 | 1.37 enrichment R
B5 | 1.04 enrichment R
B6 | 0.575 enrichment R
B7 | 1.1 enrichment R
B8 | 0.418 enrichment R
B9 | 0.533 enrichment R
B10 | 0.809 enrichment R
B11 | 0.679 enrichment R
B12 | 1.39 enrichment R
B13 | 1.18 enrichment R
B14 | 1.26 enrichment R
B15 | 1.06 enrichment R
B16 | 0.657 enrichment R
B17 | 0.336 enrichment R
B18 | 0.76 enrichment R
B19 | 0.558 enrichment R
B20 | 1.09 enrichment R
B21 | 1.55 enrichment R
B22 | 1.45 enrichment R
